Results published in publication PMC4336329 (PLoS ONE, 2015).
In all, about 310,000 compounds went through this assay and about 14,000 (4.5%) showed an effect of 50% or more. Effects have a minus sign here. The list shows a part of the results.

biological target: human ether-à-go-go-related gene (hERG) potassium channel (human, UniProt Q12809); assay: primary screen, population patch clamp on CHO cells stably expressing hERG
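Further: peak tail current of the secondary pulse compared with the same well before compound.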

Sequence of human ether-à-go-go-related gene (hERG) potassium channel (Q12809 whole entry, looked up): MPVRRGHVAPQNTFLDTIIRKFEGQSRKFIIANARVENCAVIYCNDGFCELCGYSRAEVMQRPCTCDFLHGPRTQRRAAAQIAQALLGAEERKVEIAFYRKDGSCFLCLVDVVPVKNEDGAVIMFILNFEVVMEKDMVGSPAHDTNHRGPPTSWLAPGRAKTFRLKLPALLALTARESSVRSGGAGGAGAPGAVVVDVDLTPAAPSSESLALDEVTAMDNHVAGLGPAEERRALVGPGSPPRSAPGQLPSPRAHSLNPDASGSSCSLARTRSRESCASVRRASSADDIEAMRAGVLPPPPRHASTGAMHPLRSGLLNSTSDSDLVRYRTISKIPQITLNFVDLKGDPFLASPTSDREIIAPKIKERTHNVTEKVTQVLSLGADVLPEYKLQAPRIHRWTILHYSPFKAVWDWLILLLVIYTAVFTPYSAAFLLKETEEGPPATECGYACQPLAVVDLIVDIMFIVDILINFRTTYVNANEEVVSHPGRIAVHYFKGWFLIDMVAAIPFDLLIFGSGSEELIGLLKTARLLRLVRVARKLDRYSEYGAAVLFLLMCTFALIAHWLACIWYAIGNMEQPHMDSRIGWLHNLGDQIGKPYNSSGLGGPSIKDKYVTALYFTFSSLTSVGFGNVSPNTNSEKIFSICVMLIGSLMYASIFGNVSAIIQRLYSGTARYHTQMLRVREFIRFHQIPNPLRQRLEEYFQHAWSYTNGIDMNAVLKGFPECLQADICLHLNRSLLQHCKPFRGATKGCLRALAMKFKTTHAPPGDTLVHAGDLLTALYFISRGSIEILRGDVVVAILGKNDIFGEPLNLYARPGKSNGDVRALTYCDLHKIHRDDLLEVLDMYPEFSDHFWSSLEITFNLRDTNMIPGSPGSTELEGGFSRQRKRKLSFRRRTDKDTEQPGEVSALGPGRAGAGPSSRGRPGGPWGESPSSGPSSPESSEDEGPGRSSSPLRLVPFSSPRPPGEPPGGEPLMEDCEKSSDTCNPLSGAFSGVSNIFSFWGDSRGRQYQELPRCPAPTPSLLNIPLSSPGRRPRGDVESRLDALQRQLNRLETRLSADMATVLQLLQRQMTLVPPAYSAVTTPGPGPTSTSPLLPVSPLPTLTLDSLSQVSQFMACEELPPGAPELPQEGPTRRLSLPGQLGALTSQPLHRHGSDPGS

SMILES	hERG current change (%, negative = inhibition) at 10uM [%]
Cc1cc(-c2nc3ncccc3o2)ccc1N	4.26
CCc1nc2oc3ccc(C)cc3c(=O)c2cc1C(=O)OC	12.1
c1ccc(-c2onc3cc4c(cc23)OCCO4)cc1	-6.45
COc1ccc(C2NC(=S)NC3=C2N2CCC3CC2)cc1 (stereo not drawn)	2.77
CCC(NC(=O)c1ccccc1NC(=O)c1ccco1)C(=O)NNC(=O)c1ccncc1 (stereo not drawn)	8.86
Cc1ccc(S(=O)(=O)N(C)C)cc1NC(=O)c1n[nH]c(=O)c2ccccc12	12
COc1ccccc1Cn1c(=S)[nH]c2cc(C(=O)NCC(OC)OC)ccc2c1=O	16.1
O=C(c1ccc2nsnc2c1)N1CCN(c2ccc([N+](=O)[O-])cc2)CC1	-75.5
NS(=O)(=O)c1ccc(N=Nc2ccc(O)c3ncccc23)cc1	19.3
CCCC(=O)Nc1ccc2c(c1)nc1n2CCOC1	6.13
C=C(Cl)COc1ccc2c(CCC)cc(=O)oc2c1	-45.7
O=C1CC(C(=O)N2CCc3ccccc32)CN1c1cccc(C(F)(F)F)c1 (stereo not drawn)	3.75
COC(=O)C(NC(=O)c1ccco1)(Nc1cc(C)ccn1)C(F)(F)F (stereo not drawn)	5.63
O=C(NC1CCCN(CCc2ccccc2)C1)C1CCCC1 (stereo not drawn)	-36.7
COc1cccc(C(=O)Nc2ccccc2-c2ccccc2)c1	-34.4
CC(=O)Nc1ccc(S(=O)(=O)Nc2cccc(C(=O)Nc3ccccc3C(=O)O)c2)cc1	-16.5
CCOc1ccc(NC(=O)CN(C)C(=O)c2cc(S(=O)(=O)N3CCCCCC3)ccc2OC)cc1OCC	-9.8
Cc1ccc2c(c1)C1CN(C)CCC1N2C(=S)NC(=O)c1ccc(Cl)cc1Cl (stereo not drawn)	-71
CCC1(C)CC(CCNS(=O)(=O)c2ccc(C)cc2)(c2ccc(C)cc2)CCO1 (stereo not drawn)	12.6
CCOc1ccc(NC(=O)CSC2=NCCN2)cc1.Cl	-2.9
CCCC(C(=O)Nc1ccc2c(C)cc(=O)oc2c1)c1ccccc1 (stereo not drawn)	14.1
Cc1ccc(C(C)NC(=O)C2CCCC2)c(C)c1 (stereo not drawn)	-13.4
O=C(Nc1ccc(N2CCOCC2)c(Cl)c1)c1cc2ccccc2o1	-36.1

SMILES	hERG current change (%, negative = inhibition) at 10uM [%]
Cc1noc(C)c1S(=O)(=O)N(CC(=O)NC1CCC(C)CC1)c1ccc(C(C)C)cc1 (stereo not drawn)	21.1
O=C(O)c1cccc(S(=O)(=O)N(Cc2ccccc2)c2ccccc2)c1	20.1
CCC/C=N/NC(=O)c1cc(-c2ccccc2)nc2ccccc12	8.94
CC(=O)Nc1ccc(S(=O)(=O)NC(C)CCc2ccccc2)cc1 (stereo not drawn)	2.82
COc1ccc(C(C)=O)cc1CSc1nc2ccccc2c(=O)n1-c1ccccc1	-2.17
COc1ccc(C(=O)CN2C(=O)c3ccccc3S2(=O)=O)cc1Br	14.4
CCCCC1=CC2=C(c3ccco3)C(=O)C(C)(OC(=O)c3ccc(OC)cc3)C(=O)C2=CN1CCc1ccccn1 (stereo not drawn)	0.988
O=C(Nc1ccccc1Br)c1ccccc1-c1ccccc1	-1.81
Cc1nn(C)c(C)c1/C=C1/SC(=S)NC1=O	15.9
CCOC(=O)c1oc2ccccc2c1CSc1nnnn1-c1ccc(OC)cc1	4.85
O=C1c2[nH]nc(-c3ccccc3O)c2C(c2ccc(F)cc2)N1Cc1ccco1 (stereo not drawn)	-9.23
CCOCCCNC(=O)CCNS(=O)(=O)c1ccc(C)cc1	3.47
COc1cc(N=c2ssnc2Cl)c(OC)cc1Cl	9.01
C=CCc1ccc(OCCCOc2ccc(C(=O)O)cc2)c(OC)c1	-1.14
CCN(CC)CCOC(=O)c1ccc(N)cc1.Cl	2.06
CC1(C)CC(NC(=O)C2CCN(S(=O)(=O)c3cccc(C(F)(F)F)c3)CC2)CC(C)(C)N1	-0.514
CN(c1ccc(C(=O)Nc2ccccc2C(F)(F)F)cc1)S(C)(=O)=O	-2.06
CCC(C)NCC(=O)Nc1ccc([N+](=O)[O-])cc1C(=O)Nc1ccccc1F (stereo not drawn)	-34.7
CN(c1ccc(OCC(=O)Nc2nc3ccccc3s2)cc1)S(=O)(=O)c1ccccc1	5.14
CCCCC(=O)Nc1ccc(N2CCN(c3ccc(F)cc3)CC2)cc1	23.6
Cn1c(CNc2ccc(O)cc2)nc2ccccc21	5.16
O=C(CSc1oc(-c2ccc(F)cc2)nc1S(=O)(=O)c1ccccc1)NCC1CCCO1 (stereo not drawn)	-14.4
